The supplement of paper PMC3334620
In all, about 33,000 sequences were measured (“E-score (-0.5 to 0.5)”: median about -0.012, highest 2% from about 0.29 on). The list shows a part of the results.

target: T1, Ybr033w (UniProt P38073); experiment: PBM E-score (8-mer binding enrichment) (E-score (-0.5 to 0.5)); higher = stronger / more preferred TF binding; most listed sequences are background and not binding sites; settings: protein concentration: 200 nM; construct: GST-full length
T1 sequence: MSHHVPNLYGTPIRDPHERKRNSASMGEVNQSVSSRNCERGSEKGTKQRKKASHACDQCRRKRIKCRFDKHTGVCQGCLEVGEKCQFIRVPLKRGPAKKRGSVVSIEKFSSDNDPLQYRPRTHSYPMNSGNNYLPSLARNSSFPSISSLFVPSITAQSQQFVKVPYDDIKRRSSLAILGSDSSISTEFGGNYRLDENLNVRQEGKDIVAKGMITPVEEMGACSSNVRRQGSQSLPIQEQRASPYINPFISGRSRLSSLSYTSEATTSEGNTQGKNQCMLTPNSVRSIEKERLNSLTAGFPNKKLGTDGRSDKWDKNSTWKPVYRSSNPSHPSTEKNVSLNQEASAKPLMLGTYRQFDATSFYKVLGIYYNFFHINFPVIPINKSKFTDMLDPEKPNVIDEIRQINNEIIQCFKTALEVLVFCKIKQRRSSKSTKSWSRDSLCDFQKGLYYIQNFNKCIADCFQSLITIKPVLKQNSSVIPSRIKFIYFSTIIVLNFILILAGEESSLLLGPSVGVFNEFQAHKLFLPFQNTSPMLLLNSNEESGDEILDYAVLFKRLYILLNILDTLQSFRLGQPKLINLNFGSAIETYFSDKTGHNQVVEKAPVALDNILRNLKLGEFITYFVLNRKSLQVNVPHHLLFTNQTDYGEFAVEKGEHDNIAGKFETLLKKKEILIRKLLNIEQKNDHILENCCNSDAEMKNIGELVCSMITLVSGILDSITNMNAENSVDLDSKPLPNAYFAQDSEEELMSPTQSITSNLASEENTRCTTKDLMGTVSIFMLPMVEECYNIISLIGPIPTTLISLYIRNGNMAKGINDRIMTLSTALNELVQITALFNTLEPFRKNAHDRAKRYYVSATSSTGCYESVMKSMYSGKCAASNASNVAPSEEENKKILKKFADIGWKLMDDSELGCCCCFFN
Method: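 Universal 'all 10-mer' protein binding microarrays (Agilent AMADID 015681) probed with GST-tagged S. cerevisiae TFs (full-length or DBD) made by in vitro transcription/translation (PURExpress), about 100-200 nM. Bound TF was detected with fluorescent anti-GST. Each ungapped 8-mer (which stands for itself and its reverse complement) is scored by the PBM enrichment score (E-score), a modified Wilcoxon-Mann-Whitney statistic from -0.5 to +0.5, computed with the Universal PBM Analysis Suite. Scale: above 0.35 generally sequence-specific binding.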

Sequence | PBM E-score
AAACTATC | 0.202
GGCCAATA | -0.0498
ACATCATC | 0.284
CTGGGTGC | -0.353
CAAGAAAG | 0.118
CTTGTATA | 0.155
CCACCCCC | -0.35
TCTAACAA | 0.183
TCCCGGCA | -0.245
CCAATCAC | -0.0687
AGGAACCA | -0.0143
GTCTGTGA | -0.0386
AGTACTGC | -0.0437
ATGTGCTG | 0.123
AGGAATCA | 0.193
AGCCCTGA | -0.118
GGCCCGTA | -0.258
ACTGAATC | -0.0178
GAGTCGTA | 0.00926
CCTTTGCG | 0.068
AATTCTAT | 0.181
GTTGTGTA | 0.00199
CTTCACCA | -0.135
AGGAAATA | 0.298
ACACTCAG | 0.0865

Sequence | PBM E-score
CACTTCCC | -0.0444
ATTTTGGA | 0.202
AATTGTAT | 0.0576
TGTCAAAA | 0.184
ACAGTGTC | -0.138
CTGAAATC | -0.11
CTCTAGGA | -0.207
AAAAAAGG | 0.151
CAGGACAA | 0.204
GAAAATCA | 0.276
CCGGCCGC | -0.254
CCGTACGA | 0.0233
AGTCATGC | -0.145
CCCACGTA | -0.0817
ATATTTAG | 0.321
GATCCGGA | 0.0776
ATACGGCG | 0.0505
AATTTCGC | 0.138
ATAGCATC | 0.11
CATTCCAA | 0.0384
CGCCAGAA | 0.043
AAGCTCCA | 0.0237
ACCGGCCC | -0.34
CTAGAAGA | 0.107
TTAGGAAA | 0.167

Sequence | PBM E-score
GCGGTCGA | -0.0149
CGGGTATC | -0.0976
TGGGGCAA | -0.345
AGGAATAC | -0.131
CATAAAGC | -0.0711
GGGTTATA | -0.0188
ATACACAG | 0.00306
GCATCGAC | -0.0951
TAACCCCA | -0.242
CGGCCACC | -0.113
CCAATGAC | -0.113
CCAGGCGA | -0.277
ATCAGCTG | 0.205
GATCGTTA | 0.0718
GATGACGA | 0.0438
AGGACACA | 0.175
CACCAGAA | -0.119
TCCTAAAA | 0.0432
CTTCCGAA | 0.208
ACACGGCT | -0.177
ATACCAAC | 0.232
AATTGCTG | 0.0602
CATACGCG | -0.00546
GCCATGAA | -0.0481
GGAGACGA | 0.217

Sequence | PBM E-score
CCCTTGCA | -0.291
GTCAGACA | -0.157
ATGCGGCC | -0.225
GCTGAAAC | 0.0977
CGCATAAG | 0.0829
AAGATACG | 0.226
CATACTCC | 0.0669
AGTTGCTG | -0.00876
AGACTCGC | -0.234
ACGGGGCA | -0.216
AATGCTGG | -0.0134
AAACCAAG | -0.00645
ATTCTGGG | 0.146
CCCGCGGA | -0.151
GACAGCTA | 0.0801
ATGAGTCG | -0.0608
CTCCTCCC | -0.267
AATTGCTA | 0.0712
CCTTACGC | -0.0907
ACCCCCGT | -0.35
CATATTAC | 0.17
AATTACTA | 0.234
CATTAAGA | 0.109
TATGCAGA | -0.0126
GGGCTCTA | -0.0717

Sequence | PBM E-score
AGCAGCCC | -0.266
ACATAAAG | 0.109
CCCATCGA | -0.0549
AAGTAGGA | 0.0218
CGATACCG | -0.137
ACAGGTTC | -0.204
ACTTGCTA | 0.0798
CGATATGA | 0.061
GTAAGTGA | 0.163
AGGACGTA | -0.222
GGTCGGAA | 0.108
CAGTCAAC | -0.111
AAAACAGG | -0.00112
ATGCACAG | -0.0564
AGACAACC | 0.026
AATGTCAA | 0.00312
AGCCTGAG | -0.12
CAGTTTTC | 0.0628
CATGTGGA | 0.11
ATCACACC | -0.0155
GGGCTCAC | -0.35
AGACGAAC | 0.151
ACCAGGTC | -0.175
CTCTACAC | -0.176
AGGATATC | 0.0694

Sequence | PBM E-score
ATAGTCAC | 0.159
AGTGTCCG | -0.124
GCTCTGAA | -0.0631
ATCCGGGA | 0.0253
ACGGTAAC | 0.122
AAGGTCCC | -0.179
CTTGATCA | -0.0299
CAGACCGA | -0.101
GCCACAAA | 0.14
ACGAATCT | 0.182
CGATTCAA | 0.0308
CCTATGTA | 0.142
GTATAGAC | 0.117
AGCAGGTA | -0.0336
CGGCGCTA | -0.224
ACCAAGGC | -0.0863
CGCAAACG | -0.0157
CAAACCGG | -0.0689
GCAGATGA | -0.095
CCTGCAAC | -0.034
ATACAGGC | -0.112
ATTAAATA | 0.33
AGATGTAC | 0.0883
ATTATCAG | 0.118
CGATGAGA | 0.177

Sequence | PBM E-score
AGGGTAAC | -0.228
AGGTAATG | -0.00189
GCTTGGAA | 0.105
AATTTAAA | 0.263
ACGACCAA | 0.0885
CTCGTGAC | -0.157
CCTGGCCG | -0.0575
ACACTTCG | 0.153
GGACCTAC | -0.0357
CACAGAGG | -0.112
CCTATGCA | 0.089
AAATTTCT | 0.136
AGTGCTCG | -0.00427
CCTACGCG | -0.0394
GCTAGGAA | -0.0692
CCAACAGA | -0.087
CAGAAAAA | 0.0895
CACCTACC | -0.214
GGGCTAAA | -0.0609
ATCTCGAG | -0.0425
CATTCTAG | 0.119
ACACCGCT | -0.158
